According to the supplement of paper PMC10126150:
Sequences with one replicate were seen in a single cluster, so their values are uncertain.

System: ATP
Assay: switch fluorescence ratio, 500 uM ATP over buffer (Cy3 cluster intensity, sum of 5 cycles each) (fold (ratio)); higher = stronger signal-on switching upon ATP binding; sequences stand for … in TCGTCGGCAGCGTCAGATGTGTATAAGAGACAGTTTTTTTTTTTTTTTTTTTTTTTTT…TC
Details: aptamer strand: ATP DNA aptamer (quencher-CACCTGGGGGAGTATTGCGGAGGAAGG + anchor), 100 nM annealed; ATP concentration: 500 uM; one replicate
Procedure, shortened: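 Exposure to 500 uM ATP lasted 15 min at 22 °C before imaging, and a selection-buffer image was taken beforehand, for Cy3-labelled switching-strand clusters on a modified Illumina MiSeq flow-cell annealed to 100 nM quencher-labelled ATP aptamer. Five buffer/ATP cycles were run with NaOH stripping and re-annealing between them. The fluorescence ratio per cluster is summed target-cycle over summed buffer-cycle Cy3 intensity, averaged per switch-domain sequence. Clusters outside 100-1000 RFU were excluded.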

Row | Sequence | switch fluorescence ratio
1 | ACAATCTTTC | 1.07
2 | ACCCACGGAC | 1.62
3 | GCTGAAAGTT | 1.05
4 | GAGGTGTGAA | 0.955
5 | TAAGTAAAAG | 1.02
6 | GGTCCAGCGT | 1.02
7 | GGTGCTTTTC | 0.969
8 | CTAATTGGGC | 1.03
9 | TGGACGGTTT | 0.939
10 | CCACGTTTTA | 1.02
11 | GTGAGCAGG | 1.02
12 | GTTTATCTGT | 0.978
13 | ACGCTCACCT | 1.45
14 | CTCAGGTGAC | 1.65
15 | ACTATAGTAG | 1
16 | TATAGGGAAC | 1.04
17 | GCCTAACGGG | 0.99
18 | GGCCCGTAAC | 1.12
19 | CCATTACAGT | 0.992
20 | TGCTAGAAAG | 0.978
21 | CGTGCAGCGT | 0.989
22 | ATGGCAATGG | 1.74
23 | TAGCTGG | 0.97

Row | Sequence | switch fluorescence ratio
24 | ATATGTGTCA | 1.04
25 | GATCTTGCT | 0.967
26 | TCGGAATTAC | 4.29
27 | ATCACGACTC | 1.01
28 | CGGTCTGGGT | 1.02
29 | CGGGCGCCTT | 0.999
30 | CTCTGGTTTT | 0.997
31 | ACAAAATAA | 1
32 | TTCTTAATTG | 0.985
33 | TGTATACGG | 1
34 | CTCTCATGAC | 1.9
35 | TTGACTGTCC | 1.41
36 | GTGATATCAG | 1.01
37 | GGATAAGG | 1.02
38 | AAGGGCATG | 1
39 | CGTCTCAGTT | 1.05
40 | GCTCGGCAAT | 6.26
41 | TGTTACGATC | 1.02
42 | AAATTGGCGT | 0.972
43 | CCGTGAATTG | 1.16
44 | AGACATAGGA | 0.999
45 | GAAAATGAT | 1.04
46 | CCAAGTTTGA | 0.981

Row | Sequence | switch fluorescence ratio
47 | AAAAACTAC | 1.41
48 | AGGGGACGCA | 1.04
49 | GTCAATGCCC | 1.11
50 | AGCATACCG | 1.05
51 | TTACAGTTCC | 1.13
52 | AACCTCATCG | 1.09
53 | GTGAAGGTTA | 0.998
54 | ATCTGGTTGC | 1.04
55 | ATTCATCGGC | 1.05
56 | ACGGGGTCCT | 1
57 | TCTGTTTTTC | 1.1
58 | AGCCGTAT | 1.05
59 | CCAGGAGGGC | 0.973
60 | TTATGTTGAT | 1.02
61 | CCGTATGTGG | 0.967
62 | GTCCAGGGTA | 1.1
63 | GTTTTGCAAT | 1.18
64 | TTCTTGAAGT | 0.973
65 | ACGTATATGT | 1.16
66 | ACGGCGGCGC | 1.04
67 | GTAGCGGGTG | 1.09
68 | ACTGAGCTGG | 1
69 | GCTCACAAAT | 1

Row | Sequence | switch fluorescence ratio
70 | AACTCAACAG | 1.07
71 | GGGATGGC | 1.07
72 | CATACGGGCC | 1.06
73 | CAGGTGAATT | 1.3
74 | ATTTCTCTGA | 0.986
75 | TCCGTCAGCT | 1.02
76 | AGCAGGTTAT | 0.991
77 | TGCGGAGAAA | 0.981
78 | TTACAGGTGT | 3.26
79 | AAATTTAACC | 0.979
80 | TCGGACGTG | 0.994
81 | GCTTATGTTA | 0.979
82 | GTTTCACGAA | 0.993
83 | TATCCGCTAT | 4.98
84 | GGCGTGAGCT | 1.02
85 | TTGAGTAAAT | 1.03
86 | CATATCTCCT | 1.02
87 | AGAATATAGC | 0.981
88 | AAGCTGACGG | 1.07
89 | AGGCTTCGCA | 1.1
90 | GAATCGGTGT | 0.976
91 | AATTCTAACT | 1.01
92 | GAGCGCTGCT | 0.974

Row | Sequence | switch fluorescence ratio
93 | ATGAAAGTGG | 0.955
94 | GCCCATAAAA | 1.04
95 | AAACTTGCGT | 1.01
96 | GCCTGCGTTT | 0.97
97 | ACTGTTAGTT | 1.05
98 | CATGGATCAG | 1
99 | CCTTCGCGGG | 4.8
100 | ATGATACTTT | 1.27
101 | GAGCCGTAAA | 0.985
102 | GTGGACCGGT | 0.973
103 | AAGTTCCGGT | 0.989
104 | CATCGGATTG | 0.979
105 | TAAGTGGCGG | 0.985
106 | ATACCCTTTT | 0.964
107 | TACTGGGCTA | 1
108 | ACACTCACGA | 1.32
109 | CCGAGTAGTG | 1.2
110 | TGGAAATGTA | 0.973
111 | TTGAGCCTCG | 1.01
112 | CGTTGAATAC | 2.48
113 | AACTAAACGA | 1.1
114 | CATTGGCGAC | 1.03
115 | TTGCTTGGG | 1.03

Row | Sequence | switch fluorescence ratio
116 | CCTCGGAGCA | 3.59
117 | ACCCTGTTTC | 1.01
118 | CCCCCTTGCG | 1.69
119 | GGAGAGGTT | 1.06
120 | GAAACTGGTG | 1.01
121 | ATGTTTAGTA | 1.02
122 | GATTGCGGAA | 1.01
123 | TGCCTAGGCA | 0.993
124 | ACATCGCCTA | 1.07
125 | TTGGCGTCTG | 0.953
126 | TGGGAAAGTA | 1
127 | TAAAGCTGCA | 1.09
128 | GGATTTCTAA | 1
129 | CTGGTCACCC | 1.04
130 | ATAGTAGCAG | 1.01
131 | TCTCGAAGTT | 1.08
132 | TTGGCTATGT | 0.992
133 | ATTAAGAGGG | 0.981
134 | AGTTGCCATC | 1.01
135 | TAGGTCTTTT | 1.06
136 | CATGGAAGTT | 0.989
137 | GGTATTAGCA | 1
138 | CAATTCTAAT | 1.02

Row | Sequence | switch fluorescence ratio
139 | ACGCTGATTC | 1.21
140 | GGGAAAAGTC | 1.01
141 | TTGCCCTGTT | 1.02
142 | ACTGGAACGC | 1.25
143 | GAGGATGTAT | 1.07
144 | GATGTCCGTT | 1
145 | GGGGGGCGAA | 0.953
146 | TCGCGTCTAC | 1.57
147 | TGAGGCAATG | 2.4
148 | AGAAGGCGAC | 1.02
149 | ATCTGAAGGG | 0.958
150 | TTGTGATATT | 1.01
151 | GCTTGTGTCC | 0.972
152 | CGTAGAGGTT | 1
153 | ACTACGGGC | 1.02
154 | ATGCGACTTA | 1
155 | AAGTTTCTC | 1.01
156 | CAGCGTCCTA | 0.993
157 | ATTCATTAAG | 1.02
158 | ATAAGTCAAG | 0.978
